Measurements from PubChem BioAssay (NCI).
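96-well plates; 48 h exposure; 5 concentrations. Endpoints by linear interpolation between flanking doses. Not reached: highest tested concentration assigned. GI50 is the concentration that inhibits growth by half. The concentration for full growth arrest is given as TGI.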

The compounds below were run on NCI-H322M lung (assay: inhibition of tumour cell growth, NCI panel, 48 h).

SMILES	TGI	GI50
CC1(C)OCC(C2OC(N3O[C@H](CI)C[C@@H]3c3ccccc3)C3OC(C)(C)OC23)O1 (stereo partly drawn)	> 100 µM	–
COc1cccc(-c2nc3c(C(=O)NCCN(C)C)cccc3[nH]2)c1	30.6 µM	–
C=C1C(=O)O[C@H]2[C@H]1CC/C(Cn1cc(-c3ccccc3)nn1)=C\CC[C@@]1(C)O[C@@H]21	15.4 µM	7.79 µM
CC1=Cc2cc3[n-]c(cc4nc(cc5[n-]c(cc1n2)cc5C)C(C)=C4CCC(=O)O)c(CCC(=O)O)c3C.[Pd+2]	40.6 µM	23.9 µM
COC(=O)c1ccc(N=NN(C)CO)cc1	> 100 µM	–
CCCNC(=S)/N=C\c1c(O)c2ccccc2oc1=O	> 100 µM	–
O=C1c2ccccc2-c2c1c1ccccc1c(=O)n2CCCN1CCOCC1	> 100 µM	> 100 µM
C=CCOCn1ccc(=O)[nH]c1=O	> 100 µM	–
S=C(Nc1cccc(Cl)c1)Nc1ccccn1	> 100 µM	–
CC(=O)OC1COC(n2c(N)c(C#N)c(C)c(C#N)c2=S)C(OC(C)=O)C1OC(C)=O (stereo not drawn)	> 100 µM	–
N=C(N)CCCCCCCCC(=N)N	> 100 µM	35.3 µM
O=C(NC(=S)Nc1ccc(Cl)cc1)c1ccccc1	> 100 µM	> 100 µM
CC(=O)OCC1OC(n2c(=O)n(-c3ccccc3)c(=O)c3ccccc32)C(OC(C)=O)C(OC(C)=O)C1OC(C)=O (stereo not drawn)	> 100 µM	–
